For test [1], the system named is Staphylococcus aureus ATCC29213. Briefly: microbe, parasite or virus in culture. The note with it: ATCC29213, read-out: Antimicrobial activity (MIC).
Test [2] concerns Staphylococcus epidermidis ATCC12228. The test can be described thus: microbe, parasite or virus in culture. The note with it: ATCC12228, read-out: Antimicrobial activity (MIC).

Converted amounts (≈) assume the structure as drawn.

On to `CO[C@H]1/C=C/O[C@@]2(C)Oc3c(C)c(O)c4c(=O)c(c5oc6cc(N7CCCC7)cc(O)c6nc-5c4c3/C2=N/O)NC(=O)/C(C)=C\C=C\[C@H](C)[C@H](O)[C@@H](C)[C@@H](O)[C@@H](C)[C@H](OC(C)=O)[C@@H]1C` [Example 16, 11-Deoxy-11-hydroxyimino-1′,4-didehydro-1-deoxy-1,4-dihydro-3′-hydroxy-5′-(pyrrolidin-1-yl)-1-oxo-rifamycin VIII], for which the MIC in test [1] and in test [2] was 0.0005 to 0.125 µg/mL (≈ 0.000565 to 0.141 µM) in each case.
Take `CO[C@H]1/C=C/O[C@@]2(C)Oc3c(C)c(O)c4c(=O)c(c5oc6cc(N7CC[C@@H](N)C7)cc(O)c6nc-5c4c3/C2=N/O)NC(=O)/C(C)=C\C=C\[C@H](C)[C@H](O)[C@@H](C)[C@@H](O)[C@@H](C)[C@H](OC(C)=O)[C@@H]1C` [Example 15, 11-Deoxy-11-hydroxyimino-1′,4-didehydro-1-deoxy-1,4-dihydro-3′-hydroxy-5′-(3-amino-pyrrolidin-1-yl)-1-oxo-rifamycin VIII]: the MIC in test [1] and in test [2] was 0.0005 to 0.125 µg/mL (≈ 0.000556 to 0.139 µM) each time.
On to `CO[C@H]1/C=C/O[C@@]2(C)Oc3c(C)c(O)c4c(=O)c(c5oc6cc(N7CCN(CC8CCN(C)CC8)CC7)cc(O)c6nc-5c4c3/C2=N/O)NC(=O)/C(C)=C\C=C\[C@H](C)[C@H](O)[C@@H](C)[C@@H](O)[C@@H](C)[C@H](OC(C)=O)[C@@H]1C` [Example 12, 11-Deoxy-11-hydroxyimino-1′,4-didehydro-1-deoxy-1,4-dihydro-3′-hydroxy-5 V-[4-(1-Methyl-piperidin-4-ylmethyl)-1-piperazinyl]-1-oxo-rifamycin VII], for which the MIC in test [1] and in test [2] was 0.0005 to 0.125 µg/mL (≈ 0.000494 to 0.124 µM) each time.
As for `CO[C@H]1/C=C/O[C@@]2(C)Oc3c(C)c(O)c4c(=O)c(c5oc6cc(N7CCN(CCOCCO)CC7)cc(O)c6nc-5c4c3/C2=N/O)NC(=O)/C(C)=C\C=C\[C@H](C)[C@H](O)[C@@H](C)[C@@H](O)[C@@H](C)[C@H](OC(C)=O)[C@@H]1C` [Example 17, 11-Deoxy-11-hydroxyimino-1′,4-didehydro-1-deoxy-1,4-dihydro-3′-hydroxy-5′-{4-[2-(2-hydroxy-ethoxy)-ethyl]-piperazin-1-yl}-1-oxo-rifamycin VIII], the MIC in test [1] and in test [2] was 0.0005 to 0.125 µg/mL (≈ 0.000506 to 0.127 µM) in each case.
For the compound `CO[C@H]1/C=C/O[C@@]2(C)Oc3c(C)c(O)c4c(=O)c(c5oc6cc(N7CCN(C(C)C)CC7)cc(O)c6nc-5c4c3/C2=N/O)NC(=O)/C(C)=C\C=C\[C@H](C)[C@H](O)[C@@H](C)[C@@H](O)[C@@H](C)[C@H](OC(C)=O)[C@@H]1C` [Example 9, 11-Deoxy-11-hydroxyimino-1′,4-didehydro-1-deoxy-1,4-dihydro-3′-hydroxy-5′-(4-isopropyl-1-piperazinyl)-1-oxo-rifamycin VIII], the MIC in test [1] and in test [2] was 0.0005 to 0.125 µg/mL (≈ 0.000531 to 0.133 µM) each time.
For the compound `CO[C@H]1/C=C/O[C@@]2(C)Oc3c(C)c(O)c4c(=O)c(c5oc6cc(N7CCN(CC(C)C)CC7)cc(O)c6nc-5c4c3/C2=N/O)NC(=O)/C(C)=C\C=C\[C@H](C)[C@H](O)[C@@H](C)[C@@H](O)[C@@H](C)[C@H](OC(C)=O)[C@@H]1C` [Example 5, 11-Deoxy-11-hydroxyimino-1′,4-didehydro-1-deoxy-1,4-dihydro-3′-hydroxy-5′-[4-(2-methylpropyl)-1-piperazinyl]-1-oxo-rifamycin VIII], the MIC in test [1] and in test [2] was 0.0005 to 0.125 µg/mL (≈ 0.000523 to 0.131 µM) each time.
As to `CO[C@H]1/C=C/O[C@@]2(C)Oc3c(C)c(O)c4c(=O)c(c5oc6cc(N7CCN(CC8CCCCC8)CC7)cc(O)c6nc-5c4c3/C2=N/O)NC(=O)/C(C)=C\C=C\[C@H](C)[C@H](O)[C@@H](C)[C@@H](O)[C@@H](C)[C@H](OC(C)=O)[C@@H]1C` [Example 11, 11-Deoxy-11-hydroxyimino-1′,4-didehydro-1-deoxy-1,4-dihydro-3′-hydroxy-5′-(4-cyclohexylmethyl-1-piperazinyl)-1-oxo-rifamycin VIII], the MIC in test [1] and in test [2] was 0.0005 to 0.125 µg/mL (≈ 0.000502 to 0.125 µM) each time.
For `CO[C@H]1/C=C/O[C@@]2(C)Oc3c(C)c(O)c4c(=O)c(c5oc6cc(N7CCN(C)CC7)cc(O)c6nc-5c4c3/C2=N/O)NC(=O)/C(C)=C\C=C\[C@H](C)[C@H](O)[C@@H](C)[C@@H](O)[C@@H](C)[C@H](OC(C)=O)[C@@H]1C` [Example 7, 11-Deoxy-11-hydroxyimino-1′,4-didehydro-1-deoxy-1,4-dihydro-3′-hydroxy-5′-(4-methyl-i-piperazinyl)-1-oxo-rifamycin VIII], the MIC in test [1] and in test [2] was 0.0005 to 0.125 µg/mL (≈ 0.000547 to 0.137 µM) each time.
Regarding `CO[C@H]1/C=C/O[C@@]2(C)Oc3c(C)c(O)c4c(=O)c(c5oc6cc(N7CCN(C)CC7)cc(C)c6nc-5c4c3/C2=N/O)NC(=O)/C(C)=C\C=C\[C@H](C)[C@H](O)[C@@H](C)[C@@H](O)[C@@H](C)[C@H](OC(C)=O)[C@@H]1C` [Example 19, 11-Deoxy-11-hydroxyimino-1′,4-didehydro-1-deoxy-1,4-dihydro-3′-methyl-5′-(4-methyl-1-piperazinyl)-1-oxo-rifamycin VIII], the MIC in test [1] and in test [2] was 0.0005 to 0.125 µg/mL (≈ 0.000548 to 0.137 µM) throughout.
Consider `CO[C@H]1/C=C/O[C@@]2(C)Oc3c(C)c(O)c4c(=O)c(c5oc6cc(N7CC(C)NC(C)C7)cc(O)c6nc-5c4c3/C2=N/O)NC(=O)/C(C)=C\C=C\[C@H](C)[C@H](O)[C@@H](C)[C@@H](O)[C@@H](C)[C@H](OC(C)=O)[C@@H]1C` (stereo partly drawn) [Example 14, 11-Deoxy-11-hydroxyimino-1′,4-didehydro-1-deoxy-1,4-dihydro-3′-hydroxy-5′-(3,5-dimethyl-1-piperazinyl)-1-oxo-rifamycin VIII], for which the MIC in test [1] and in test [2] was 0.0005 to 0.125 µg/mL (≈ 0.000539 to 0.135 µM) throughout.
Consider `COc1c(N2CCN(C(=O)CO/N=C3/c4c5c(C)c(O)c6c4C4=NC7(CCN(CC(C)C)CC7)NC4=C(NC(=O)/C(C)=C\C=C\[C@H](C)[C@H](O)[C@@H](C)[C@@H](O)[C@@H](C)[C@H](OC(C)=O)[C@H](C)[C@@H](OC)/C=C/O[C@@]3(C)O5)C6=O)C(C)C2)c(F)cc2c(=O)c(C(=O)O)cn(C3CC3)c12` (stereo partly drawn) [Example 22, 11-Deoxy-11-{2-oxo-2-[2-methyl4-(3-carboxy-1-cyclopropl-2-methoxy-6-fluoro-4-oxo-1,4-dihydroquinolin-7-yl)piperazin-1-yl]ethoxyimino}-1′,4-didehydro-1-deoxy-1,4-dihydro-5′-(2-methylpropyl)-1-oxo-rifamycin XIV], for which the MIC in test [1] and in test [2] was 0.0005 to 0.125 µg/mL (≈ 0.000391 to 0.0979 µM) each time.
For the compound `CO[C@H]1/C=C/O[C@@]2(C)Oc3c(C)c(O)c4c(=O)c(c5oc6cc(N7CCN(CC(C)C)CC7)ccc6nc-5c4c3/C2=N/O)NC(=O)/C(C)=C\C=C\[C@H](C)[C@H](O)[C@@H](C)[C@@H](O)[C@@H](C)[C@H](OC(C)=O)[C@@H]1C` [Example 20, 11-Deoxy-11-hydroxyimino-1′,4-didehydro-1-deoxy-1,4-dihydro-5′-(4-isobutyl-1-piperazinyl)-1-oxo-rifamycin VIII], the MIC in test [1] and in test [2] was 0.0005 to 0.125 µg/mL (≈ 0.000532 to 0.133 µM) each time.
As to `CO[C@H]1/C=C/O[C@@]2(C)Oc3c(C)c(O)c4c(=O)c(c5oc6cc(N7CCC(N8CCCCC8)CC7)cc(O)c6nc-5c4c3/C2=N/O)NC(=O)/C(C)=C\C=C\[C@H](C)[C@H](O)[C@@H](C)[C@@H](O)[C@@H](C)[C@H](OC(C)=O)[C@@H]1C` [Example 13, 11-Deoxy-11-hydroxyimino-1′,4-didehydro-1-deoxy-1,4-dihydro-3′-hydroxy-5′-[(1,4′)-bipiperidinyl-1′-yl]-1-oxo-rifamycin VIII], the MIC in test [1] and in test [2] was 0.0005 to 0.125 µg/mL (≈ 0.000509 to 0.127 µM) in each case.
`CO[C@H]1/C=C/O[C@@]2(C)Oc3c(C)c(O)c4c(c3/C2=N/O)C2=NC3(CCN(CC(C)C)CC3)NC2=C(NC(=O)/C(C)=C\C=C\[C@H](C)[C@H](O)[C@@H](C)[C@@H](O)[C@@H](C)[C@H](OC(C)=O)[C@@H]1C)C4=O` [Example 4, 11-Deoxy-11-hydroxyimino-1′,4-didehydro-1-deoxy-1,4-dihydro-5′-(2-methylpropyl)-1-oxo-rifamycin XIV]: the MIC in test [1] and in test [2] was 0.0005 to 0.125 µg/mL (≈ 0.00058 to 0.145 µM) each time.
Consider `CCCCN1CCN(c2cc(O)c3nc4c5c6c7c(C)c(O)c5c(=O)c(c-4oc3c2)NC(=O)/C(C)=C\C=C\[C@H](C)[C@H](O)[C@@H](C)[C@@H](O)[C@@H](C)[C@H](OC(C)=O)[C@H](C)[C@@H](OC)/C=C/O[C@@](C)(O7)/C6=N\O)CC1` [Example 10, 11-Deoxy-11-hydroxyimino-1′,4-didehydro-1-deoxy-1,4-dihydro-3′-hydroxy-5′-(4-butyl-1-piperazinyl)-1-oxo-rifamycin VIII], for which the MIC in test [1] and in test [2] was 0.0005 to 0.125 µg/mL (≈ 0.000523 to 0.131 µM) in each case.
As to `CO[C@H]1/C=C/O[C@@]2(C)Oc3c(C)c(O)c4c(c3/C2=N/OCC(=O)O)C2=NC3(CCN(CC(C)C)CC3)NC2=C(NC(=O)/C(C)=C\C=C\[C@H](C)[C@H](O)[C@@H](C)[C@@H](O)[C@@H](C)[C@H](OC(C)=O)[C@@H]1C)C4=O` [Example 21, 11-Deoxy-11-(4-carboxymethoxyimino)-1′,4-didehydro-1-deoxy-1,4-dihydro-5′-(2-methylpropyl)-1-oxo-rifamycin XIV], the MIC in test [1] and in test [2] was 0.0005 to 0.125 µg/mL (≈ 0.000543 to 0.136 µM) each time.
`CO[C@H]1/C=C/O[C@@]2(C)Oc3c(C)c(O)c4c(=O)c(c5oc6cc(N(CCO)CCO)cc(O)c6nc-5c4c3/C2=N/O)NC(=O)/C(C)=C\C=C\[C@H](C)[C@H](O)[C@@H](C)[C@@H](O)[C@@H](C)[C@H](OC(C)=O)[C@@H]1C` [Example 18, 11-Deoxy-11-hydroxyimino-1′,4-didehydro-1-deoxy-1,4-dihydro-3′-hydroxy-5′-[bis-(2-hydroxy-ethyl)-amino]-1-oxo-rifamycin VIII]: the MIC in test [1] and in test [2] was 0.0005 to 0.125 µg/mL (≈ 0.000544 to 0.136 µM) each time.
For `CO[C@H]1/C=C/O[C@@]2(C)Oc3c(C)c(O)c4c(=O)c(c5oc6cc(N7CCOCC7)cc(O)c6nc-5c4c3/C2=N/O)NC(=O)/C(C)=C\C=C\[C@H](C)[C@H](O)[C@@H](C)[C@@H](O)[C@@H](C)[C@H](OC(C)=O)[C@@H]1C` [Example 6, 11-Deoxy-11-hydroxyimino-1′,4-didehydro-1-deoxy-1,4-dihydro-3′-hydroxy-5′-(morpholin-4-yl)-1-oxo-rifamycin VIII], the MIC in test [1] and in test [2] was 0.0005 to 0.125 µg/mL (≈ 0.000555 to 0.139 µM) throughout.

Source of the values: patent US7265107B2, “Rifamycin C-11 oxime cyclo derivatives effective against drug-resistant microbes” (Cumbre Pharmaceuticals Inc., priority 2004, dated 2007).
